From the supplement of paper PMC11417369 come the findings set out here.

Some of the results follow.

This assay concerns PfAP2-HC AP2 domain (GST-tagged). Description: gcPBM binding intensity (ln(normalized median fluorescence intensity)); higher = stronger DNA binding. The method, boiled down:
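DNA-binding domains from P. falciparum, fused to GST and produced in E. coli, were put on an Agilent 4 × 180k double-stranded probe array for 1 h in 1× PBS holding 1% milk, 0.2 mg/ml BSA, 0.5% salmon testes DNA and 0.03% Triton X-100. Probes were primer-extended, 36 bp long and drawn from intergenic genomic regions, with negative controls included. After Alexa488 anti-GST antibody detection and a 488 nm scan, binding intensity was set as the highest Masliner-normalised natural-log median intensity across replicate spots of either probe orientation.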
Regarding “TTGCCTTAAAAAGGAACACACATGCTTTTTTTAGTT [CACACA_site938]”, the “gcPBM binding intensity (ln)” value was determined as 9.78. Consider “AACTTACTCTTTACAAGTACGTAAAAGAAATAGAAA [XGTACX_site1782]”, for which the “gcPBM binding intensity (ln)” value amounted to 9.47.

As for “AATAAAGCAATAAATACACACATATATATATATATA [CACACA_site2934]”, the “gcPBM binding intensity (ln)” value came out at 9.75. With “TATATAAAAAATAGGTGGTCAACTTAAATATTTTAT [XGTACX_site4495]”, the “gcPBM binding intensity (ln)” value worked out at 9.67. For the sequence “TATTGCCCTTGACACACACACATATAAATAAATATA [CACACA_site7220]”, the “gcPBM binding intensity (ln)” value is 10.3. Regarding “TTATGGGACTCAAATACATGCAAAAATATTTTTAAG [TGCATGCA_site559]”, the “gcPBM binding intensity (ln)” value was 9.44. “TAAGGTTAAATAATATGTACATATTATTATATATAT [XGTACX_site6953]”: the “gcPBM binding intensity (ln)” value came to 9.61.

On to “TTAAACCGTGGGAGCACACACACACCCAGACACATA [CACACA_site4337]”, for which the “gcPBM binding intensity (ln)” value is 10.4. Take “AAATATGTATATATATATATATATATATATATATAT [GTGCAC_negctrl_site335]”: the “gcPBM binding intensity (ln)” value was 9.56. As to “AATATATAAGTCTACTGTACCCAAAATAAAATTTAT [XGTACX_site8727]”, the “gcPBM binding intensity (ln)” value stood at 9.6. Consider “GTATATATACATAAATGTACATATATATAAAAAATG [XGTACX_site3271]”, for which the “gcPBM binding intensity (ln)” value was 9.73.

On to “ATATATCCAAATAGATTACATATATATATATAGATA [TGCATGCA_negctrl_site277]”, for which the “gcPBM binding intensity (ln)” value came to 9.5. As for “AAATATAATAAAATGACACACGCATATATATATATA [CACACA_site8900]”, the figure is 9.85. As for “ATATATTTATATATTGCACACAAAAAAAAAAAAAAA [CACACA_site8468]”, the “gcPBM binding intensity (ln)” value worked out at 9.52. As to “AACATTATAAGACACACACACACATATATAAATATA [CACACA_site6622]”, the “gcPBM binding intensity (ln)” value was 11.2. For AAATAAGAACATAGAATGCACTTTTTTTTTTTTTCC, the “gcPBM binding intensity (ln)” value came to 9.51. As for “GTAATTATATACATACGTACATACACATATGTATAT [XGTACX_site4149]”, the figure is 9.85. As for “GGATATATGAAACATATTGAAAAACCGTTTAGTACA [CACACA_negctrl_site132]”, the figure is 9.72; as for “TAATTTTTGTAAACAGTCATGGATTCAAAAAAAAAA [CACACA_negctrl_site593]”, 9.35; as for “TTACTATGTAAACACACATGCAATATATGTTAAGCC [TGCATGCA_site253]”, 9.76.

Regarding “TTATATGAAAATTATTGTACAATCTATAAAAAAAAT [XGTACX_site4194]”, the “gcPBM binding intensity (ln)” value amounted to 9.45. As for “TAATAATCAAACTATACACACATAAATAAATATATA [CACACA_site156]”, the “gcPBM binding intensity (ln)” value is 9.95.

For the sequence “AAGGAAATAAGAAAAAGTACACATAAGTATATAACA [XGTACX_site1173]”, the “gcPBM binding intensity (ln)” value was found to be 9.82. The figure for “CACGTGTAAATAGTTTTACAATATCTCGATATGTAT [CACACA_negctrl_site785]” is 9.58; for “TGTATGTTTATTTATCGTACATATATATATATATAT [XGTACX_site7315]” it is 10.1; for “TTTTATATATTATATACACACATATATATATATATA [CACACA_site2999]” it is 9.72. As to “AGGAAAAAAAAAATGTGTACTTAAAAAAAAAAAATT [XGTACX_site1471]”, the “gcPBM binding intensity (ln)” value turned out to be 9.47. The figure for “AATAAATAAATATATACACACATATATCTGTACATA [CACACA_site9034]” is 10.1; for “CGTTTATATTTTAACTGTACTCAAAAAGTGCATTGT [XGTACX_site6072]” it is 9.55; for “TTTTATCATATTTATTGTACACATAATATACATATC [XGTACX_site1145]” it is 9.99.

Turning to “AAATTAGAATTAGGAACACACATATTTATATTTATA [CACACA_site7450]”, the “gcPBM binding intensity (ln)” value amounted to 9.74. As to “TTTATTCTCCGACACACACACATATATTTATTTATA [CACACA_site7377]”, the “gcPBM binding intensity (ln)” value was determined as 10.5.

Consider “ATATATAAAAAATGTGGTACATTCATTTATTATACA [XGTACX_site3495]”, for which the “gcPBM binding intensity (ln)” value turned out to be 9.9.

Turning to “CATTTTATAAAAAGCACACATATAGTTATATGCACA [CACACA_site3691]”, the “gcPBM binding intensity (ln)” value came to 9.6. The figure for “TAAATTATAATAAATACACACAAATTATAATTCTAT [CACACA_site3942]” is 9.74; for “TTTGAATCCTTATATACACACATTATATAATATTAT [CACACA_site4472]” it is 9.9; for “TATATATATATACATTGTACATTATTGATTATAACA [XGTACX_site1678]” it is 9.57. “GTGCTAAAAGTATATGCACACACATATATATGCACA [CACACA_site8472]”: the “gcPBM binding intensity (ln)” value was determined as 10. In the case of “AATATTTTATATAAATGTACATTTATGAATAATATA [XGTACX_site8477]”, the “gcPBM binding intensity (ln)” value was 9.55.

On to “ACAAAGTAAAATAATGCATGTAGGTATACATAATTA [TGCATGCA_site607]”, for which the “gcPBM binding intensity (ln)” value was determined as 9.86. For “TGTTCATTTATTTACTTACACACTTTATATATGTGG [CACACA_site1410]”, the “gcPBM binding intensity (ln)” value came to 9.99. As to “TAAAAGTAGATATATACACACATAAATATAGATGTA [CACACA_site6457]”, the “gcPBM binding intensity (ln)” value came out at 9.89. The figure for “ACATATTTCCAATAATGTACATACAAAATAAGAATG [XGTACX_site2659]” is 9.67; for “AAAAATAAAAAGAATTGTACATATAAATCATATACA [XGTACX_site6860]” it is 9.72; for “GACCCAATGAAAAGGTCACACATTTTTTCTTTTCGA [CACACA_site5074]” it is 9.49. The figure for “TAAAAATATATAAACAGTACATAAATTAAATAAATA [XGTACX_site6962]” is 9.79; for “TTTTTTCTTTAATACTCAATATGATAAAAGTAACAC [XGTACX_negctrl_site163]” it is 9.31.

“GTTAAAATTTGTCAATGTACAGAAATAATAAAAAAA [XGTACX_site1879]”: the “gcPBM binding intensity (ln)” value was 9.59.

In the case of “AAAGTTTTTACCAAGTGTACATATATATATATATAT [XGTACX_site5786]”, the “gcPBM binding intensity (ln)” value is 9.73. Turning to “TATTTTTTTTAGCGTACATGCAAAAAAAAAAAAAAA [TGCATGCA_site555]”, the “gcPBM binding intensity (ln)” value stood at 9.08. Consider GTTTATTTATTTTATGTGCACATATAACAAAAAAAA, for which the “gcPBM binding intensity (ln)” value was 9.57. Regarding “ATTTTTTTTTTTATAGTGGAACCACATTTGCCATTT [CACACA_negctrl_site1247]”, the “gcPBM binding intensity (ln)” value amounted to 9.49. Regarding “TATTAAATGAAACAAACACACATAGCCTTTAAATAT [CACACA_site1560]”, the “gcPBM binding intensity (ln)” value worked out at 9.91. The figure for “TTAGGACAAAAAAAAATAAAAATAAAATAAAATAAT [CACACA_negctrl_site1613]” is 9.61; for “AAATTATATATATTTACATGCAATATAATGAAATAA [TGCATGCA_site229]” it is 9.65.

Regarding “ATAAAATAAAACAGAGCACACATTTTATTTACATTC [CACACA_site696]”, the “gcPBM binding intensity (ln)” value is 9.79. For the sequence “ATATATATATCATATTGTACATATTATTGTATAATC [XGTACX_site5020]”, the “gcPBM binding intensity (ln)” value is 9.74. The figure for “TTGTTTTTAAGAAAAACACACACTCCTGTTATTTTA [CACACA_site9230]” is 9.76; for “AAATATTATACAAAAAAAAAAAAAAAAAAAATATAT [CACACA_negctrl_site52]” it is 9.58; for “ATTTTGTATATATTTTGTACATATTTTGTATATATT [XGTACX_site885]” it is 9.8. For “GTATGTATAATATACACACTCACAAGCATTCAAATA [CACACA_site267]”, the “gcPBM binding intensity (ln)” value was 9.76. Turning to “ATATAAACATGTTTGTGTACGTAATATGAAAAATAA [XGTACX_site8157]”, the “gcPBM binding intensity (ln)” value came out at 9.75. Regarding “ATAGCCAAAAATCATGCACACCTAAAAAAAAAAAAA [CACACA_site8826]”, the “gcPBM binding intensity (ln)” value worked out at 9.65. Regarding “TATATTTATGTATATGTGCACATAAATTTAAGAATG [GTGCAC_site9512]”, the “gcPBM binding intensity (ln)” value was 9.7. Consider “ATTTTTAATCATTTACAACCTAGTGATTATACAAAT [CACACA_negctrl_site1089]”, for which the “gcPBM binding intensity (ln)” value was 9.57. With “CGTATGCGTATATACACACCCACGTATATATATAAA [CACACA_site3200]”, the “gcPBM binding intensity (ln)” value stood at 9.66. As for “ATATAATAATTGTACACATGCACACACAAATATTAT [TGCATGCA_site204]”, the figure is 10.1; as for “TTCATTTTAATAATATGTACATAATATATTTAAAAA [XGTACX_site634]”, 9.38; as for “GTATATATATTTGTACGTACATATTGTTGTAAACAC [XGTACX_site8833]”, 9.92. In the case of “AAGAGAGACATCAACACACATACGTATGTATAGAAA [CACACA_site1397]”, the “gcPBM binding intensity (ln)” value is 10.1. Take “TTTTTTATTGTGATACGTATATTATTTTATGATTAA [GTGCAC_negctrl_site202]”: the “gcPBM binding intensity (ln)” value was 9.64. As for “GGGGGTAGGGGAAGAAGTACAATGATCACTACAGTA [XGTACX_site1169]”, the figure is 9.59; as for “TTAAGTCATAAATAAAGTACATAAATATAATATATA [XGTACX_site6304]”, 9.63; as for “ATGTAAATGTTATTATGTACATATTTATTCTTCAAA [XGTACX_site7377]”, 9.66. Consider “TCCAATTAAATATATGAACACACATGTGAACTTTCT [CACACA_site9318]”, for which the “gcPBM binding intensity (ln)” value is 9.69.

For “TTTTTAATTAACTTTGTAAACTTATATATATATATA [TGCATGCA_negctrl_site311]”, the “gcPBM binding intensity (ln)” value was 9.6. The figure for “AAGGAATATTAAGTGGGTACTAAAAAAAAATTAATT [XGTACX_site331]” is 9.57. Consider “TTAAAGCACCCATGCACACACACAAGGGAAAAGAAA [CACACA_site4289]”, for which the “gcPBM binding intensity (ln)” value stood at 10.9. Regarding GAAGTAGATGGAAAAGTGCACTGTAATGGTTATATT, the “gcPBM binding intensity (ln)” value turned out to be 9.76. As for “TGTATATAGAAACATACACACATATTAATTTTACAT [CACACA_site3126]”, the figure is 9.86; as for “TTTTTTATTAAAAGCGAAAAAAATGAAAACTTTTTT [GTGCAC_negctrl_site605]”, 9.22.

In the case of “TATATATATATATATATATATATTAATATATATTAC [XGTACX_negctrl_site103]”, the “gcPBM binding intensity (ln)” value worked out at 9.62.

“AAATTAATAAATATTTTTATAAATTATAATATTAAT [GTGCAC_negctrl_site533]”: the “gcPBM binding intensity (ln)” value is 9.19. Take “TATATATATATATAATGTACGAATAGAAAAAAAAAA [XGTACX_site7231]”: the “gcPBM binding intensity (ln)” value came out at 9.73.

For “CAAAATTTATATAATAGTACACATGATCTTTTTTCT [XGTACX_site8956]”, the “gcPBM binding intensity (ln)” value was 9.55. For “GATACAAAATGGGGAACACACACATATATATATATA [CACACA_site9278]”, the “gcPBM binding intensity (ln)” value was determined as 10.8. Take “AAAAGTGTATGTAGGTGTACTTTTTATTTCTTCTTT [XGTACX_site8819]”: the “gcPBM binding intensity (ln)” value worked out at 9.76. Regarding “TAAAGGCAAACAAACACACACACATATATACCTATA [CACACA_site7078]”, the “gcPBM binding intensity (ln)” value was 10.6.
